# Source: PMC4336329 (PLoS ONE, 2015)
# About 2,200 (0.71%) of roughly 310,000 compounds showed an effect of 50% or more. Effects have a minus sign here. Some of the results follow.
# Biological target: human ether-à-go-go-related gene (hERG) potassium channel (human, UniProt Q12809)
# Test: primary screen, population patch clamp on CHO cells stably expressing hERG
# human ether-à-go-go-related gene (hERG) potassium channel, sequence (Q12809 whole entry, looked up): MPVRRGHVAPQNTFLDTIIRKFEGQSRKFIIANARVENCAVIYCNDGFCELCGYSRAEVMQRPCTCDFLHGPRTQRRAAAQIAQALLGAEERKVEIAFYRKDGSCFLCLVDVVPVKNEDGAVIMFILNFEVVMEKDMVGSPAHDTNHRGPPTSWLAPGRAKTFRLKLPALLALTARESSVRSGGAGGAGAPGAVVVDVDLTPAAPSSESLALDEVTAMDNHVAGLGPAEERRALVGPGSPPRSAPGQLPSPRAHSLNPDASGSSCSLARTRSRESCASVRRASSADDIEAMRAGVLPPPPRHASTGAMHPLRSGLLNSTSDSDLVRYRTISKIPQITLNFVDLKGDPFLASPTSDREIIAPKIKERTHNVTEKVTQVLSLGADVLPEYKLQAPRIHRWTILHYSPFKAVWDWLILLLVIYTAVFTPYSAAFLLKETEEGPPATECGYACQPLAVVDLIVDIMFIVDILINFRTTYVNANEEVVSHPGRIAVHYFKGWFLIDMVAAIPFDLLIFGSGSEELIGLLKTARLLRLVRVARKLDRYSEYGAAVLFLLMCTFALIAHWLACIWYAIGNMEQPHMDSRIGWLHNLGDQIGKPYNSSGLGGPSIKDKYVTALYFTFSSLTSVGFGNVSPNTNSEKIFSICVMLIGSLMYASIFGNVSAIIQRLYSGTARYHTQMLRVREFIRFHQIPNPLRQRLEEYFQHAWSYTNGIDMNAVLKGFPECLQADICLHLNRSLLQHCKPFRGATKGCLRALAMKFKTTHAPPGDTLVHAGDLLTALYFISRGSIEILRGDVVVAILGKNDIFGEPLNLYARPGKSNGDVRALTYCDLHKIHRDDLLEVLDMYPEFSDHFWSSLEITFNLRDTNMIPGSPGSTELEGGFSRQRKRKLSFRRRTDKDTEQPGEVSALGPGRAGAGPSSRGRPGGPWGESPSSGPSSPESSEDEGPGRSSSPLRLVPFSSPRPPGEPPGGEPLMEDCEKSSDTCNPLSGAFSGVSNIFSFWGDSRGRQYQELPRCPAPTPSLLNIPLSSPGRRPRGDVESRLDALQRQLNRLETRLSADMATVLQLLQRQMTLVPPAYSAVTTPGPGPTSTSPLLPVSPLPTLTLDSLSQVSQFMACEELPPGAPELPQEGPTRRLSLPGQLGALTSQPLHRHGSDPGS
row,Structure (SMILES),"hERG current change (%, negative = inhibition) at 1uM"
1,Cc1ccccc1-n1nc2c(c1NC(=O)c1cc3ccccc3oc1=O)CS(=O)C2 (stereo not shown),8.53%
2,O=[N+]([O-])c1ccccc1NC(=S)N/N=C/c1ccc(O)c(O)c1,12.2%
3,CN1CCCC(OC(=O)c2cc(Cl)cc(Cl)c2)C1.Cl (stereo not shown),-14.8%
4,CSCCC(NC(=O)c1ccc(Cl)cc1)C(=O)OCC(=O)N1CCCC1=O (stereo not shown),8.02%
5,NC(=O)CSc1nnc(-c2ccccc2Br)n1-c1cccc(C(F)(F)F)c1,8.84%
6,CCOc1ccc(CCNC(=O)COC(=O)c2cc([N+](=O)[O-])ccc2N2CCOCC2)cc1OCC,-10.2%
7,O=C(c1ccccc1)N1CCN(C(=O)c2cc3ccccc3o2)CC1,0.931%
8,CCOC(=O)c1snc(C(=O)NC2CCCCC2)c1N,-2.62%
9,c1ccc(Cc2noc(CN3CCN(C4CCc5ccccc5C4)CC3)n2)cc1 (stereo not shown),-76.1%
10,Cc1cc(NS(=O)(=O)c2ccc(NC(=O)/C=C/c3c(F)cccc3Cl)cc2)nc(C)n1,18.5%
11,Cc1cccc(/C=C/c2onc(C)c2[N+](=O)[O-])n1,14.8%
12,c1coc(-c2nnc3sc(C4CCCCC4)nn23)c1,-5.14%
13,N=c1oc2ccccc2cc1C(=O)Nc1cccc(F)c1,18.9%
14,Cc1ccccc1NC(=O)Cc1nc(COC(=O)COc2ccccc2C(C)C)cs1,1.34%
15,O=C(OCC1CC(c2ccccc2)=NO1)c1ccc(Br)cc1 (stereo not shown),10.1%
16,CC(=O)Nc1sc2c(c1C#N)CCCCC2,16.2%
17,Nc1nc(Nc2ccccc2)nc(NCc2ccccc2)c1[N+](=O)[O-],7.82%
18,CC(C)c1ccc(NC(=O)CSc2n[nH]c(=O)n2-c2cccnc2)cc1,10.6%
19,CN(Cc1ccccc1)C(=O)CSc1n[nH]c(N)n1,9.02%
20,COc1ccc(C)cc1COC(=O)c1[nH]c(C)c(C(C)=O)c1C,8.88%
21,Cc1cnn(-c2cc(N/N=C/c3ccc(F)cc3)ncn2)c1,8.04%
22,CCOC(=O)N1CCN(C(=O)CCc2ccccc2)CC1,22.2%

row,Structure (SMILES),"hERG current change (%, negative = inhibition) at 1uM"
1,COc1ccc(C(=O)N/C(=C/c2ccc(Cl)cc2)C(=O)Nc2ccc(C(=O)O)cc2)cc1,-1.1%
2,COc1ccc(/C=C2\SC(=S)N(CCC(=O)Nc3cccc(O)c3)C2=O)cc1OC,11.8%
3,CCOc1ccc2[nH]c3c(NCCC(C)C)ncnc3c2c1,4.7%
4,Cc1csc(NC(=O)CSc2nnc(NC(=O)COc3ccccc3)s2)n1,12.8%
5,CCN(C(=O)Cc1c(C(=O)O)n(CC)c2ccccc12)c1cccc(C(F)(F)F)c1,13.4%
6,Cc1cc(C)c2nc(N(CCCN(C)C)C(=O)c3ccc4c(c3)CCCC4)sc2c1.Cl,6.37%
7,CCNC(=O)c1cccc(NC(=O)CC2SC(N3CCCCC3)=NC2=O)c1 (stereo not shown),18.1%
8,COc1cc(OC)cc(C(=O)NCC(=O)NCC(c2ccco2)N2CCCCC2)c1 (stereo not shown),13.9%
9,CCS(=O)(=O)Nc1ccc(C(=O)CC2(O)C(=O)Nc3ccc(Br)cc32)cc1 (stereo not shown),9.44%
10,CC(=O)Nc1ccccc1NC(=O)c1ccccc1,11%
11,Cc1coc2c1c(C)cc1oc(=O)c(CC(=O)N[C@H](C(=O)O)C(C)C)c(C)c12,10.1%
12,CN(C(=O)CSc1nc2cc(C(=O)O)ccc2c(=O)n1Cc1ccccc1)C1CCS(=O)(=O)C1 (stereo not shown),17.6%
13,O=C(NCCN1CCN(Cc2ccccc2)CC1)c1cc2c(=O)[nH]c3ccccc3c2s1,15.2%
14,Cc1cc(NC(=O)CSC2=NCCS2)no1,7.5%
15,O=C(NC1CCCCCC1)C1CCCN1S(=O)(=O)c1cccc2cccnc12 (stereo not shown),11.4%
16,CCOC(=O)c1cc2c(nc1N)CCCC2,5.5%
17,CCSc1nc2c(c(=O)[nH]1)C(c1cccs1)C(C(=O)OC)=C(C)N2 (stereo not shown),10.7%
18,COCCOC(=O)C1=C(C)NC(=O)NC1c1ccc(OC(=O)c2ccco2)c(OC)c1 (stereo not shown),6.38%
19,CC(=O)Nc1ccc(S(=O)(=O)N2CCN(C(=O)c3ccco3)CC2)cc1,18%
20,CCOc1ccc(NS(=O)(=O)c2ccc(C(=O)N3CCCC3)cc2)cc1,12.2%
21,CCn1cc(C(=O)C(F)(F)F)c2ccccc21,-0.712%
22,Cc1cccc(NC(=O)COc2cccc3c2CCN(Cc2ccccc2)C3=O)c1C,0.47%

row,Structure (SMILES),"hERG current change (%, negative = inhibition) at 1uM"
1,Cc1cccc(NC(=O)CNC(=O)COc2ccc(C(=O)c3ccc(F)cc3)cc2)c1C,1.92%
2,c1cc(-c2nnc3n2CCC3)[nH]n1,15.6%
3,O=C(NCCOc1ccccc1)c1cccc2c1C(=O)c1ccc(Cl)cc1S2(=O)=O,8.02%
4,CC1CCc2c(sc(NC(=O)COC(=O)c3ccc(NC(=O)CC#N)cc3)c2C#N)C1 (stereo not shown),0.557%
5,COC(=O)c1c(-c2cccc(C)c2)csc1N,17.1%
6,COc1ccc(CCNC(=O)C(Sc2ccccn2)c2ccccc2)cc1OC (stereo not shown),7.19%
7,COc1cc(/C=N/NC(=O)CN(Cc2ccco2)S(=O)(=O)c2ccccc2)ccc1O,0.474%
8,CC1(C)OC2OC(COC(=O)c3ccc([N+](=O)[O-])cc3)C3OC(C)(C)OC3C2O1 (stereo not shown),3.65%
9,Cc1cc(NC(=O)CSc2ncnc3ccccc23)no1,15.8%
10,CC(CN1CCNCC1)(NS(=O)(=O)c1ccccc1)c1ccccc1 (stereo not shown),14.9%
11,O=C(Nc1ncccn1)c1ccc([N+](=O)[O-])o1,10.8%
12,COc1cc(C2/C(=C(\O)c3ccc4c(c3)CC(C)O4)C(=O)C(=O)N2CCCn2ccnc2)ccc1O (stereo not shown),11.3%
13,N#Cc1nc(Cc2cccc3ccccc23)oc1NCCN1CCCCC1,-30.7%
14,CCn1cc(/C=C(\NC(=O)c2ccccc2Cl)C(=O)N2CCOCC2)c2ccccc21,10.1%
15,COc1ccc(C(=O)Nc2ccccc2N2CCN(C(=O)C(C)C)CC2)cc1Cl,-16.2%
16,CCCNC(=O)Cn1c(=O)cnc2ccccc21,20.4%
17,O=C(COC(=O)c1cc(-c2ccccn2)nc2ccccc12)Nc1ncc(C(F)(F)F)cc1Cl,13%
18,c1ccc2c3c([nH]c2c1)C(C1CCCCC1)N(Cc1ncc[nH]1)CC3 (stereo not shown),-3.59%
19,Cc1cc(C)nc(Sc2nc(Cl)nc(N(c3ccccc3)c3ccccc3)n2)n1,12.1%
20,C[C@@H](C(=O)N[C@H](C(=O)O)c1ccccc1)n1nnc2ccccc2c1=O,13.2%
21,CCOC(=O)C(C)S(=O)(=O)c1ccc(C(F)(F)F)cn1 (stereo not shown),11.5%
22,Cc1cccc(OCC(O)CN2CCNCC2)c1.Cl (stereo not shown),17.8%

row,Structure (SMILES),"hERG current change (%, negative = inhibition) at 1uM"
1,C=C(C)C(=O)NC1=NN(c2ccccc2)C(=O)C1,12.5%
2,COc1ccc2[nH]cc(CCNC(=O)c3ccc4ccccc4n3)c2c1,11.1%
3,CN(CC(=O)Nc1cccc(F)c1)C(=O)CN1C(=O)NC2(CCCCC2)C1=O,3.28%
4,Cc1ccc(C2CC(C(F)(F)F)n3nc(C(=O)NCc4c(C)nn(C)c4C)c(Cl)c3N2)cc1 (stereo not shown),9.37%
5,Cc1ccc(NC(=O)CC2SC3=NCCCN3C2=O)c(C)c1 (stereo not shown),13.8%
6,O=[N+]([O-])c1ccc(/C=N/n2c(-c3cccnc3)n[nH]c2=S)cc1,10.8%
7,CCC1=C(OC(=O)N(CC)CC)N2C(=O)OC(=NCCOC)[C@]2(Cc2ccccc2)[C@H]2C1=CC[C@H]1C(=O)N(CC(=O)OC)C(=O)[C@H]12,-2.4%
8,CNS(=O)(=O)c1cccc(C(=O)OCc2csc(-c3ccccc3)n2)c1,1.31%
9,COc1ccc(/C(O)=C2\C(=O)C(=O)N(Cc3ccco3)C2c2cc(OC)ccc2OC)cc1 (stereo not shown),15.6%
10,O=C(O)CCn1c(Cc2ccccc2)nc2ccccc21,10.1%
11,Cc1ccc(S(=O)(=O)N2CCOCC2)cc1NC(=O)COc1ccc2c(C)cc(=O)oc2c1,1.24%
12,O=S(=O)(c1ccc(Cl)cc1)n1ccc(-c2cccc(OCc3c(F)cccc3Cl)c2)n1,13.7%
13,C#CCOCCOCCOCCNc1nc(N2CCOCC2)nc(N2CCN(C(=O)CCCCCCCCCCNC(=O)[C@@H]([C@H](C)O)n3cc(C)nn3)CC2)n1,13.9%
14,OCC1(Cc2ccc(F)cc2)CCCN(Cc2ccc(F)cc2Cl)C1 (stereo not shown),7.26%
15,CC(C)N(C(=O)CSc1nnc(-c2ccc3c(c2)OCO3)n1C)C(C)C,1.59%
16,COc1cccc(OC)c1C(=O)NNC(=O)c1cccc(COc2ccc3c(c2)CCC3)c1,9.63%
17,CCOC(=O)c1ccccc1NC(=O)CC(C)CC(=O)O (stereo not shown),12%
18,COc1ccc(NC(=O)CN2CCN(c3c(C)cccc3C)CC2)cc1,6.72%
19,COc1ccccc1/C=N/NC(=O)C(=O)N1CCN(c2ccccc2OC)CC1,3.98%
